# Data: PubChem BioAssay (NCATS)
# The list shows a part of the results. The main result of the screen is listed elsewhere. These columns were measured beside it and carry no call. Compounds called inactive in the main read-out are mostly missing here. Words in brackets tell the shape of the fitted curve; partial curves, single points and poor fits give uncertain potencies.
# Assay: qHTS Assay for Lipid Storage Modulators (AID 1519)
# Details: Drosophila S3 cells, BODIPY lipid droplet/cell ratio, laser cytometry, cells loaded with oleic acid
# Summary of the method: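 Cells seeded at 5,000 per well were treated with compounds over a concentration series and loaded with oleic acid (400 uM, as added). Lipid droplet fluorescence (488 nm excitation, 500-530 nm channel) was read by laser-scanning cytometry and normalized to 20 uM Triacsin C.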
# [1] = measured here: cell count channel max response
# [2] = measured here: cell number channel AC50
# [3] = measured here: lipid (BODIPY) channel AC50
# [4] = measured here: lipid channel max response
# Tags tell the direction and shape of the fitted curve.
SMILES,max response [1] [%],AC50 [2],AC50 [3],max response [4] [%]
CS(=O)(=O)Nc1cccc(-c2nc(Nc3ccncc3)c3ccccc3n2)c1,5.66,"0.126 µM [rising, full curve]","0.224 µM [rising, full curve]",6.66
COc1ccc2c(c1OC)C(Cc1ccccc1)N1CCc3cc4c(cc3C1=C2)OCO4 (stereo not drawn),41.2,"1.12 µM [rising, full curve, poor fit]","0.794 µM [rising, full curve, poor fit]",-84.3
N#Cc1cccc(-c2cncnc2NCc2cccnc2)c1,55.4,"14.1 µM [rising, partial curve, poor fit]","11.2 µM [rising, partial curve]",63.1
CN(C)c1ncc2nc(-c3cc(F)cc(F)c3)c(=O)n(-c3ccccc3)c2n1,34.6,"8.91 µM [rising, partial curve, poor fit]","3.16 µM [rising, full curve, poor fit]",27.9
CN(CCc1ccc(Cl)c(Cl)c1)CCN1CCCCCC1,40.1,"31.6 µM [rising, single point]","31.6 µM [rising, single point]",49.6
O=c1c(-c2cccs2)nc2cnc(N3CCNCC3)nc2n1-c1ccccc1,39.6,"20 µM [rising, partial curve, poor fit]","20 µM [rising, partial curve]",49.7
COc1ccc(CNc2nc(-c3ccc4c(c3)OCO4)nc3ccccc23)c(OC)c1,28.5,"0.0794 µM [rising, full curve]","0.0708 µM [rising, full curve, poor fit]",35.4
